# Screen size: about 310,000 compounds; about 2,200 (0.71%) showed an effect of 50% or more. Effects have a minus sign here. This is one part of the list.
# Molecular target: human ether-à-go-go-related gene (hERG) potassium channel (human, UniProt Q12809)
# Assay: primary screen, population patch clamp on CHO cells stably expressing hERG
# Sequence of human ether-à-go-go-related gene (hERG) potassium channel (Q12809 whole entry, looked up): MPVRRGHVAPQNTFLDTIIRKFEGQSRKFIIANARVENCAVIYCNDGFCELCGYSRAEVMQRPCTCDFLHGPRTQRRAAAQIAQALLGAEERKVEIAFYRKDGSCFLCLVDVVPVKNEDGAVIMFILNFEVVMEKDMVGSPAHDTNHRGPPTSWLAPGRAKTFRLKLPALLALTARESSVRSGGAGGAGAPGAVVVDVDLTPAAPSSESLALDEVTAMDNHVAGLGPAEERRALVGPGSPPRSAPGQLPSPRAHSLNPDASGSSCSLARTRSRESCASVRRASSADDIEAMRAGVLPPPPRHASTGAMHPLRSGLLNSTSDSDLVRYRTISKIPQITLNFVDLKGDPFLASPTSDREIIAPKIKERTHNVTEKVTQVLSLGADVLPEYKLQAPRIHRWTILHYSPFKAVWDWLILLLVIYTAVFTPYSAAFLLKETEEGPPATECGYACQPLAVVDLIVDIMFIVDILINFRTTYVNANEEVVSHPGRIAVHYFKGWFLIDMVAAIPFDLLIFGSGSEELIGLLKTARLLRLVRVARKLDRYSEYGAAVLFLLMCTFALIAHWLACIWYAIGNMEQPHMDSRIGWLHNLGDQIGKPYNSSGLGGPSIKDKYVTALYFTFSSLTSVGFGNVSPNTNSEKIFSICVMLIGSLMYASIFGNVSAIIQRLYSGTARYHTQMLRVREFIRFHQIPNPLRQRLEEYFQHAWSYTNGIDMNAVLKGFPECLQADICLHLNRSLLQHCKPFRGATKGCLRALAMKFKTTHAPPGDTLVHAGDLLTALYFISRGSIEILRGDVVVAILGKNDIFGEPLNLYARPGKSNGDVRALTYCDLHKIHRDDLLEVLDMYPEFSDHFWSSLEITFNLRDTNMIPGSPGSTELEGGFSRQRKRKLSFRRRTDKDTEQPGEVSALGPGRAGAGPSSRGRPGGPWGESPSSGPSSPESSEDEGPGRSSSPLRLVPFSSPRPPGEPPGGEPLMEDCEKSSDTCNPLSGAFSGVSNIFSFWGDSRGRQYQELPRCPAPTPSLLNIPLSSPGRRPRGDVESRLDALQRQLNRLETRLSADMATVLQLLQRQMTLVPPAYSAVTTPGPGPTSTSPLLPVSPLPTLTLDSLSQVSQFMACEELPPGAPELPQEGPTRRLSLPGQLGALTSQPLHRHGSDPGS
row,Structure (SMILES),"hERG current change (%, negative = inhibition) at 1uM"
1,Cc1ccc(/C=N/NC(=O)c2cccc(S(=O)(=O)N3CCOCC3)c2)o1,8.14%
2,O=C(Cc1ccc2c(c1)OCCO2)N1CCN(S(=O)(=O)c2cccs2)CC1,5.4%
3,N#C/C(=C\c1ccc(-c2ccccc2[N+](=O)[O-])o1)C(N)=O,7.93%
4,O=C(Cc1ccc(Cl)cc1)Nc1ccc(C(=O)N2CCCCC2)cc1,13%
5,COc1ccc(C(=O)CSc2nnc(-c3cc(C)on3)o2)cc1,9.09%
6,Cc1cccc(OCc2nnc(SCC(=O)N3CCCCC3)o2)c1,13.6%
7,O=C(NCc1ccco1)/C(=C\c1ccco1)NC(=O)c1ccc(Br)o1,1.64%
8,Cc1cc(NC(=O)c2cc(-c3cccnc3)nc3c(C)c(C)ccc23)no1,5.52%
9,CN(C)c1ccnc(SCc2ccccc2Cl)c1C#N,1.99%
10,CCOc1ccccc1NC(=O)N1CCC2(CC1)OCCO2,11.8%
11,Cc1ccc2nc(CCc3nc4ccc(C)cc4o3)oc2c1,6.32%
12,COc1ccc(S(=O)(=O)N2CCOCC2)cc1C(=O)NCc1ccccc1CN1CCCC1,3.13%
13,CC(C)c1ccc(-c2nnn(CC(=O)N3CCCCC3)n2)cc1,7.35%
14,Cc1ccc(OCC(=O)Nc2cc(C(=O)O)cc(C(=O)O)c2)cc1C,6.76%
15,Cc1noc(C)c1COC(=O)C1CCN(S(=O)(=O)c2ccc(F)cc2)CC1,-2.72%
16,C/C(CC(=O)Nc1ccc(N(C)C)cc1)=N\NC(=O)c1ccccn1,9.68%
17,CCOC(=O)N1CCC(NC(=O)C(NS(=O)(=O)c2ccc3c(c2)CCN3C(=O)CC)C(C)C)CC1 (stereo not drawn),-2.08%
18,COc1cc2cc(C(=O)Nc3ccc4c(c3)OCCO4)[nH]c2cc1OC,15.6%
19,CC(=O)C1=C(C)NC(=O)NC1c1ccccc1 (stereo not drawn),10.7%
20,CC(C)(C)NC(=O)NC(=O)CN1CCN(S(=O)(=O)c2ccc3c(c2)OCCO3)CC1,3.9%
21,COc1cc2ncnc(NCc3cccs3)c2cc1OC,-9.04%
22,COC(=O)c1cc(NC(=O)C2CC(=O)NC(=NCc3ccc(OC)cc3)S2)cc(C(=O)OC)c1 (stereo not drawn),15.6%

row,Structure (SMILES),"hERG current change (%, negative = inhibition) at 1uM"
1,Cc1ccc(-n2nnc3c(=O)oc4ccccc4c32)cc1,10.4%
2,CCOc1ccc(Cc2nnc(SCC(N)=O)n2C)cc1,4.75%
3,Cc1cccc(C)c1NC(=O)NNC(=O)c1cc(C(C)(C)C)nn1Cc1ccccc1,8.31%
4,CCOC(=O)N1CCN(c2c(-c3ccc(C)cc3)c(=O)c2=O)CC1,1.88%
5,Nc1ccc(-c2nnnn2-c2ccc(N)cc2)cc1,14.8%
6,CCCC1(C(=O)OC)NC(c2ccc(OC)c(OC)c2)C2C(=O)N(c3ccc4c(c3)OCO4)C(=O)C21 (stereo not drawn),21%
7,O=C(Nc1cccc(C(=O)Nc2cccc(C(F)(F)F)c2)c1)c1ccc(=O)[nH]c1,12.5%
8,COc1ccc(N(C)C(=O)C2CCN(S(=O)(=O)c3cccc4nsnc34)CC2)cc1,12.4%
9,O=C(CN1CCOCC1)Nc1ccc(Br)cc1C(=O)c1ccccc1,-3.67%
10,COC(=O)Nc1nc2c(s1)CCCC2,10.4%
11,CCOc1ccc(NC(=O)CN(C)C(=O)c2cc(C)on2)cc1OCC,18%
12,O=c1[nH]c(CN2CCN(C/C=C/c3ccccc3)CC2)nc2ccccc12,-52.6%
13,COc1ccc(-c2nc3c4ccccc4ccn3c2CN2CCCCC2)cc1OC.Cl,13.9%
14,CCN1CCN(c2ccc([N+](=O)[O-])cc2C(=O)c2ccc(Cl)cc2)CC1,-58.3%
15,CCN1CCN(C(=O)N[C@@H](C(=O)N[C@@H]2C(=O)N3C(C(=O)O)=C(CSc4nnnn4C)CS[C@H]23)c2ccc(O)cc2)C(=O)C1=O.O,14%
16,CC(C)Oc1cccc(C(=O)C2CCCN(C(=O)CCn3cnnn3)C2)c1 (stereo not drawn),-3.55%
17,CCOc1ccc(N)c(SSc2cc(OCC)ccc2N)c1,15.6%
18,COc1cc(N=Nc2c(C)n(C)n(-c3ccccc3)c2=O)ccc1N,14.6%
19,CN1CCN(C2CCCCCC2)CC1,11.7%
20,Cc1cc([N+](=O)[O-])nn1CCCC(=O)Nc1c(C)n(C)n(-c2ccccc2)c1=O,6.37%
21,O=C(Nc1cccnc1)c1cc(-c2cccc(Cl)c2)on1,7.97%
22,O=[N+]([O-])c1ccccc1S(=O)(=O)NCc1ccc(F)cc1,9.12%

row,Structure (SMILES),"hERG current change (%, negative = inhibition) at 1uM"
1,O=C(O)c1cccc(-c2ccc(/C=N/Nc3nn[nH]n3)o2)c1,2.95%
2,Cn1c(SCC(=O)N/N=C/c2ccco2)nc2ccccc21,5.3%
3,CCO[C@H]1OC(C(=O)NC2CC2)=C[C@@H](c2coc3ccccc3c2=O)[C@@H]1CCCO,13.4%
4,CC(=O)Nc1ccc(Nc2c([N+](=O)[O-])cc(S(C)(=O)=O)cc2[N+](=O)[O-])cc1,12%
5,CC(C)N1CCN(Cc2cccc3nonc23)CC1CCO (stereo not drawn),10%
6,CCOc1ccccc1NC(=O)NC1(C(=O)NCC2CCCO2)CCCCC1 (stereo not drawn),12.9%
7,Cc1cccc(/C=N/NC(=O)CC(=O)NCCc2ccccc2)c1,16.6%
8,CSc1nnc(CSCc2ccc(Cl)cc2Cl)n1-c1ccccc1,13.6%
9,CC(C)COc1ccc(C(=O)Nc2sc3c(c2C(=O)O)CC(C)(C)OC3)cc1,18.7%
10,CS(=O)(=O)Nc1ccc(C(=O)Nc2ccc(S(=O)(=O)N3CCCC3)cc2)cc1,9.67%
11,CCN(CC)c1ccc(N=CN2CCOCC2)cc1,15.6%
12,CCOc1ccc(NS(=O)(=O)c2ccc(NS(=O)(=O)c3ccc(SC)cc3)cc2)cc1,9.23%
13,C=C(C)c1cccc(C(C)(C)NC(=O)NC2CN3CCC2CC3)c1 (stereo not drawn),3.81%
14,CCCC(=O)N1CC2(CCC)CN(C(=O)CCC)CC(CCC)(C1)C2=O,6.16%
15,CC(=O)Nc1ccc(S(=O)(=O)NNC(=S)NCC2CCCO2)cc1 (stereo not drawn),15.1%
16,Cc1cc(C(=O)O)n(C(C)(C)C)n1,7.4%
17,CCN(CCO)C(=O)CC(c1ccccc1)c1cc(Br)ccc1O (stereo not drawn),-4.66%
18,COc1ccc(S(=O)(=O)N2CCCc3ccccc32)cc1OC,5.82%
19,Cc1ccc(CNC(=O)Cn2nnc(C(=O)Nc3cccc(C)c3C)c2N)cc1,15.6%
20,COc1cc2cc(CCCOC(=O)c3ccc(C(F)(F)F)cc3)oc(=O)c2cc1OC,10.5%
21,CC(C)CC1Nc2ncnc(N3CCN(c4ccccc4)CC3)c2N(Cc2ccc(Cl)cc2)C1=O.O=C(O)C(F)(F)F (stereo not drawn),14.7%
22,O=C(NCc1cccc(C(F)(F)F)c1)C1CC(c2ccccc2F)=NO1 (stereo not drawn),5.42%

row,Structure (SMILES),"hERG current change (%, negative = inhibition) at 1uM"
1,CN1CCN(C(=O)C2CCCN(S(=O)(=O)c3ccc(Cl)cc3)C2)CC1 (stereo not drawn),1.84%
2,Cc1cccc(-c2oc(C)c(C)[n+]2[O-])c1.Cl,-1.74%
3,Cc1ccccc1N=C(NO)c1cccnc1,13.5%
4,O=C(CN1CCN(c2ccc(F)cc2)CC1)Nc1cccnc1Cl,2.93%
5,O=C(NNC(=O)c1ccc(SCC2CCCO2)c([N+](=O)[O-])c1)c1ccc(Cl)c([N+](=O)[O-])c1 (stereo not drawn),-2.18%
6,Cc1nc(S(=O)(=O)Cc2ccccc2Cl)nc2c1CCC2,19.4%
7,COc1ccc(N=C2C(=Nc3ccc(OC)cc3)N(c3ccc(N(C)C)cc3)C(=S)N2c2ccc(OC)cc2)cc1,1.24%
8,CCOC(=O)C1CCCN(C(=O)c2ccco2)C1 (stereo not drawn),5.15%
9,O=c1n(Cc2ccccc2Cl)nc2n1-c1ccccc1SC2,9.36%
10,NC(=O)/C(=C\c1ccco1)NC(=O)c1ccc(Br)o1,1.36%
11,CC(OC(=O)c1cccc(-n2cnnn2)c1)C(=O)N(C)c1ccccc1 (stereo not drawn),-4.76%
12,COc1ccc(/C=C/C(=O)N[C@@H](C)C(=O)O)cc1,4.64%
13,CCOC(=O)C1=C(C)N=c2s/c(=C\c3ccc(OCC(=O)O)cc3)c(=O)n2C1c1ccc(Cl)cc1 (stereo not drawn),19.1%
14,O=C(NCc1cccc(CNC(=O)c2ccco2)c1)c1ccco1,26.1%
15,CCN(CC)C(=O)Cn1c(=O)n(CCCCCC(=O)Nc2ccccc2)c(=O)c2sccc21,-7.94%
16,CCN(C(=O)CSc1nnc(Cc2ccccc2F)n1N)C1CCS(=O)(=O)C1 (stereo not drawn),9.21%
17,CCCc1c(NC(=O)Nc2ccc(F)cc2)cnn1-c1ccc(Cl)cc1,9.29%
18,COc1ccccc1NC(=O)NC(=O)N(C(C)C)S(C)(=O)=O,15.8%
19,Cc1cccc(NC(=O)CCC(=O)N/N=C/c2cccnc2)c1,4.86%
20,COc1ccc(C(=O)Nc2cccc(NC(C)=O)c2)cc1OC,14.3%
21,C/C=C\C=C/C(=O)Nc1cccc(C2=NOC3(C2)C[C@@H](C(N)=O)N(C(=O)CCCCC)C3)c1 (stereo partly drawn),0.577%

# Reference: publication PMC4336329 (PLoS ONE, 2015)
